PMC4216074
These are yes or no findings as the source states them, for the method shown. In cells and extracts the contact can be indirect. Some binding calls cover weakened binding; strength is not graded here. For part of these data: Tags and fused reporters may be left off the sequences shown.

Protein sequences, listed by entry. Tags and fused reporters are not part of them.
UniProt Q8TEW0: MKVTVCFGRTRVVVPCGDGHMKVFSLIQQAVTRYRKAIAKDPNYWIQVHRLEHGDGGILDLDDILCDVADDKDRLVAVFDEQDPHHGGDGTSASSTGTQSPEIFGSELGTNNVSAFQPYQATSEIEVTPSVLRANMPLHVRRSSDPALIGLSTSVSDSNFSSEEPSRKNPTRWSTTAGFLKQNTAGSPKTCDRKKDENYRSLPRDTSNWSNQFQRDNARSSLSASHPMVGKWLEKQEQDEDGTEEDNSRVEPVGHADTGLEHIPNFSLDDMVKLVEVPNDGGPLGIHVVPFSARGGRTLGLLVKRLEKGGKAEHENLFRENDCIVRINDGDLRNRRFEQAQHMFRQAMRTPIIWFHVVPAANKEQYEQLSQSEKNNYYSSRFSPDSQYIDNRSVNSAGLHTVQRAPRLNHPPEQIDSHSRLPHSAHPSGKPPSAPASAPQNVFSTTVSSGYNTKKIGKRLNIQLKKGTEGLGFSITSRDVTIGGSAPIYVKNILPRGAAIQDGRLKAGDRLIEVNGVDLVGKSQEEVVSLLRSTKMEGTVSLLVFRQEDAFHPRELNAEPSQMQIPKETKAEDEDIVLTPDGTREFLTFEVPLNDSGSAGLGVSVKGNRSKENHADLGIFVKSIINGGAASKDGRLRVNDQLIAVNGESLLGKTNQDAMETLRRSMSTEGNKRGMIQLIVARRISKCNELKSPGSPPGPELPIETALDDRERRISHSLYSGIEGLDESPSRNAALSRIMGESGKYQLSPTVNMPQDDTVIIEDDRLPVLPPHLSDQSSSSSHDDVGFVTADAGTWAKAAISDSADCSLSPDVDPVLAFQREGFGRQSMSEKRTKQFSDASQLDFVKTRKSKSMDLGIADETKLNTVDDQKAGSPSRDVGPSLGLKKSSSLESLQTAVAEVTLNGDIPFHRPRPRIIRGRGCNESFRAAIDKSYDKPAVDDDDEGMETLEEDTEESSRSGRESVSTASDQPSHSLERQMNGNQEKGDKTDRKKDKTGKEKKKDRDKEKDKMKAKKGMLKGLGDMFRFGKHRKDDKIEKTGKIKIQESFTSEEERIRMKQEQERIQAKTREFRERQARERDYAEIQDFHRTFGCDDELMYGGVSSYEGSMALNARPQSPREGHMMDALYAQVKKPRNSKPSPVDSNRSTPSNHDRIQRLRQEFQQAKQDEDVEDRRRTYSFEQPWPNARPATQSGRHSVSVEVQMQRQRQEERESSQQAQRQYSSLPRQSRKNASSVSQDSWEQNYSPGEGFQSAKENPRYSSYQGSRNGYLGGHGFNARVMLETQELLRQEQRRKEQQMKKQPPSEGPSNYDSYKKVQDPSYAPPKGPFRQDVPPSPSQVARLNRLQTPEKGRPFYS

Columns and labels:
ASPP2-V5 = target: T1, ASPP2-V5 (UniProt Q13625); test: co-IP; U2OS cells expressing V5-tagged constructs; immunoprecipitation with anti-V5; endogenous Par3 and PP1α detected by immunoblot
T1 sequence: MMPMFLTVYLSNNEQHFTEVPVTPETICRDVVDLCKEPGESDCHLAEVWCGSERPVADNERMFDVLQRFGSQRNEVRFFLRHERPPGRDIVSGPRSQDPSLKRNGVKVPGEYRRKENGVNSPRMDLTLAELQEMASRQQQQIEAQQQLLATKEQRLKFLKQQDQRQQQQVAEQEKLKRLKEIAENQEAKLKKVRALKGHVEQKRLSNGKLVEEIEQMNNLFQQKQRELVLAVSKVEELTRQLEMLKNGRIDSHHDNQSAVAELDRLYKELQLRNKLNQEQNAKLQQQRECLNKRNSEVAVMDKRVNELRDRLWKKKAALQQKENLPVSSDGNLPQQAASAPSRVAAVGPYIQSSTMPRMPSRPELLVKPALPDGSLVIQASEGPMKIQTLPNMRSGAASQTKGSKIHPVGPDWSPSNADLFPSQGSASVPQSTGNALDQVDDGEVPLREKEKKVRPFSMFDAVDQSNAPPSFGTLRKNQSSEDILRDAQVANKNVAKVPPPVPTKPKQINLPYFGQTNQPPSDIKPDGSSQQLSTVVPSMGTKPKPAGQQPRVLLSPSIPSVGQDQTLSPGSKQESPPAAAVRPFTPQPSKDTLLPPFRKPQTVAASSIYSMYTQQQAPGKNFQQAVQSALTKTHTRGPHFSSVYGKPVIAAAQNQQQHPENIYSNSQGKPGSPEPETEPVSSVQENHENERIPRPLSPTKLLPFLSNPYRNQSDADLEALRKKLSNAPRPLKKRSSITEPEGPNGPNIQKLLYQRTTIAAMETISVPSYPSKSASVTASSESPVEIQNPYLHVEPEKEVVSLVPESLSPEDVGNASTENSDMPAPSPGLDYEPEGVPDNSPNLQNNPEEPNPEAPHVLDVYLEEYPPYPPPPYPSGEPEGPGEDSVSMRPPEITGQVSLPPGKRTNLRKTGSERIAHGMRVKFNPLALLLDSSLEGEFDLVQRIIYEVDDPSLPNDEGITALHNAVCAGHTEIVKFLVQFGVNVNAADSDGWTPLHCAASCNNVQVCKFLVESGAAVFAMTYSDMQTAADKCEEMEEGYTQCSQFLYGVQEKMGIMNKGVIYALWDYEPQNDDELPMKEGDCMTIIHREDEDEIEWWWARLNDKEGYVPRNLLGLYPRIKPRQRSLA

iASPP-V5 = target: T2, iASPP-V5 (UniProt Q8WUF5); test: as above
T2 sequence: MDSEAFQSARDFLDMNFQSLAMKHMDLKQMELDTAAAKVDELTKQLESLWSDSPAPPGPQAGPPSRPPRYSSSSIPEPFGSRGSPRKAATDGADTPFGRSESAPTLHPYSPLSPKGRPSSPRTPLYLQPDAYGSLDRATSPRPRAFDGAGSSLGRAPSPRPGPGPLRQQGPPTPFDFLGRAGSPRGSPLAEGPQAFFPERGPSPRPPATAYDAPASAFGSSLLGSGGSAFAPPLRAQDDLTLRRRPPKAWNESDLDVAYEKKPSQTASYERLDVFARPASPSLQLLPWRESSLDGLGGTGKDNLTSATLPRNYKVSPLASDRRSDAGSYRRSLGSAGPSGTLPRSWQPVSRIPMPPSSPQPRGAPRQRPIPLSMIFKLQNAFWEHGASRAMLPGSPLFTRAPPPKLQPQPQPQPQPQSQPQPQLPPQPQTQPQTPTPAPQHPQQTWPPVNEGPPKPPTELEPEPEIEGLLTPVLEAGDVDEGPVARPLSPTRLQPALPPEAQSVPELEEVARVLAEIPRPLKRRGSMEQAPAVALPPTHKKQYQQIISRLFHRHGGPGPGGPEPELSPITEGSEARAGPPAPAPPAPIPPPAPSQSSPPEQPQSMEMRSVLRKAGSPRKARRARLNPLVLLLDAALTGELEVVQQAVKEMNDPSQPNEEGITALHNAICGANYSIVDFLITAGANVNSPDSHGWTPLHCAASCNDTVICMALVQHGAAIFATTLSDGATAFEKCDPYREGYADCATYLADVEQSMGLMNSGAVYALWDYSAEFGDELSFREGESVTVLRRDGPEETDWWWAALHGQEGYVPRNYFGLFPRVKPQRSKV

[1] = target: T3, ASPP2 (endogenous, Caco-2 cells) (human (endogenous in Caco-2)) (UniProt Q13625); test: co-IP; endogenous ASPP2 immunoprecipitated from Caco-2 lysates with anti-ASPP2 DX50.13 (anti-Gal4 as negative control); cells at low, medium and high density; 50 mM Tris-HCl pH 8, 150 mM NaCl, 1 mM EDTA, 1% Triton X-100; immunoblot
T3 sequence: T1 sequence

binding (ASPP2-V5): binds | binding (iASPP-V5): no binding | binding [1]: binds
Substance: Par3 (endogenous) (from UniProt Q8TEW0 1-1356)
